Several values for one entry are separate records, joined by “and”; a condition that tells them apart may be missing. Equal values may be shown once. Screen size: about 390,000 compounds; about 2,200 (0.56%) were called active. Inconclusive results, whose numbers are uncertain, are shown with a selection of clear calls. Calls follow the shape of the dose curve; as a rule, active = well fitted inhibition curve with a large enough effect; inconclusive = small, poorly fitted or top-dose-only effect; inactive = no such curve, though single readings can be large or run the other way. Potencies beside an inconclusive call are fits to weak or partial responses and may not hold up.
What follows are compounds tested against Chromobox protein homolog 1 (Homo sapiens) (UniProt P83916) (assay: HTS for Inhibitors of HP1-beta Chromodomain Interactions with Methylated Histone Tails). Settings: AlphaScreen HP1-beta / biotin-H3K9me3 peptide binding; series mostly up to 114 µM; activity change, negative = inhibition: at the top concentration.
UniProt P83916, sequence (P83916 whole entry, looked up): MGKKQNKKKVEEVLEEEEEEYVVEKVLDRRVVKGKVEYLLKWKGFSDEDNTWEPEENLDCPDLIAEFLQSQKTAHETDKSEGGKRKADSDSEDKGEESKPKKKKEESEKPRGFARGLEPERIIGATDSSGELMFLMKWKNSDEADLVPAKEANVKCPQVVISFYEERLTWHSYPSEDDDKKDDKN
Procedure, shortened: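 HP1-beta protein (50 nM final) preincubated 30 min at room temperature with biotinylated H3(1-18)K9me3 peptide (50 nM) in PBS pH 7.4, 0.01% Tween-20, then compound added for 30 min. AlphaScreen streptavidin donor/nickel chelate acceptor beads (10 ug/mL final), 30 min dark, luminescence read.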
Also: nearly all actives have a fitted effect of over 70% in size.
Potency is read from the fitted curve at half-maximal effect; tags tell the direction and shape of the fitted curve.

Structure (SMILES) | activity change, negative = inhibition | Potency
CC(=O)NCCn1c(SCc2ccccc2F)nc2ccccc2c1=O | inactive: 23.4% | 
CCC(NC(=O)Nc1cc(Cl)ccc1OC)c1c(-n2cccc2)sc2c1CCN(C)C2 (stereo not drawn) |  | inconclusive: 39.8 µM [inhibitor, partial curve]
COc1ccc(OC)c2sc(N3CCN(C(=O)c4ccc5ncsc5c4)CC3)nc12 |  | inconclusive: 79.4 µM [inhibitor, partial curve, poor fit]
CC(CCc1ccccc1)NC(=O)CN1CCSc2ccccc21 (stereo not drawn) |  | active: 79.4 µM
COc1ccc(-c2nnn(CC(=O)N3CCN(c4ccc(F)cc4)CC3)n2)cc1 | inactive: 6.74% | 
COc1ccc(C(=O)OCC(=O)Nc2ncc([N+](=O)[O-])s2)cc1OC |  | inconclusive: 28.2 µM [inhibitor, partial curve]
O=C(c1ccc(Cl)cc1)c1cc([N+](=O)[O-])ccc1N1CCOCC1 |  | inconclusive: 28.2 µM [inhibitor, partial curve, poor fit]
CC1(C)Cc2ccccc2C(NN=C2CCCC2)=N1 |  | inconclusive: 79.4 µM [inhibitor, single point]
O=C(OCc1ccco1)c1ccc2c(c1)N(Cc1cccc(F)c1)C(=O)c1ccccc1S2 | inactive: 9.22% [at 57 µM] | 
O=C(Nc1sc2c(c1C(=O)O)CCCCC2)c1ccccc1 |  | inconclusive: 10 µM [inhibitor, full curve]
COCCN1C(=O)C(=O)/C(=C(/O)c2ccc(S(=O)(=O)N3CCCCC3)cc2)C1c1ccc(O)c(OC)c1 (stereo not drawn) | inactive: 48.4% | 
CN(C)S(=O)(=O)c1ccc(C(=O)NCCN2C(=O)S/C(=C\c3cccnc3)C2=O)cc1 | inactive: 48.3% | 
COc1ccc(C(=O)CSc2nnc(CN3CCCC3)n2-c2ccc(F)cc2)c(OC)c1 |  | inconclusive: 79.4 µM [inhibitor, single point]
O=C(C1CCN(Cc2ccccc2)CC1)N1CCN(C/C=C/c2ccccc2)CC1 |  | inconclusive: 35.5 µM [inhibitor, partial curve]
CCN(C(=O)CSc1nc2cc(S(=O)(=O)N(CC)CC)ccc2o1)C1CCS(=O)(=O)C1 (stereo not drawn) |  | inconclusive: 28.2 µM [inhibitor, partial curve, poor fit]
CC(/C=N/NC(=O)c1cc(-c2ccccc2)nc2ccccc12)=C\c1ccco1 |  | inconclusive: 28.2 µM [inhibitor, single point]
CCCCNC1=CC(=O)C(NCCCC)=CC1=O |  | active: 17.8 µM
O=c1cnnc(Nc2ccc(Cl)c(C(F)(F)F)c2)[nH]1 | inactive: 9.41% | 
O=C(CSc1nc(-c2ccc(F)cc2)nc2c1Cc1ccccc1O2)Nc1cccc(C(=O)O)c1 |  | inconclusive: 22.4 µM [inhibitor, partial curve, poor fit] and inconclusive: 20 µM [inhibitor, full curve]
O=C(NCC(c1cccnc1)N1CCc2ccccc21)c1ccc(F)c(F)c1 (stereo not drawn) | inactive: 28.6% | 
CC1(OC(=O)C2CCCC2)C(=O)C=C2C=C(c3ccc(C#N)cc3)OC=C2C1=O (stereo not drawn) |  | inconclusive: 44.7 µM [inhibitor, partial curve]
CN=c1scc(C)n1/N=C/c1ccc(O)c(O)c1O |  | inconclusive: 11.2 µM [inhibitor, partial curve, poor fit]

Structure (SMILES) | activity change, negative = inhibition | Potency
COc1cc(O)c(NC(C)=O)c2nonc12 | inactive: 20.9% | 
CC1CCN(C(=O)c2ccc(N3C(=O)C4CCC(C)CC4C3=O)cc2)CC1 (stereo not drawn) | inactive: 27.7% | 
CCOc1ccc(CCNC(=O)CS(=O)(=O)Cc2nc(-c3cccc(Cl)c3)oc2C)cc1 | inactive: 59% | 
CC(=O)c1ccc(N2CCN(C(=O)COc3ccccc3F)CC2)c(F)c1 |  | inconclusive: 39.8 µM [inhibitor, partial curve, poor fit]
O=C(Nc1n[nH]c(=S)s1)c1ccco1 |  | inconclusive: 79.4 µM [inhibitor, single point]
CCC(=O)NC1=C(Cl)C(=O)C(NC(=O)CC)=C(Cl)C1=O |  | active: 3.98 µM
COc1ccc(-n2c(C)cc(/C=N/Nc3nc(N4CCOCC4)nc(N4CCOCC4)n3)c2C)cc1 |  | inconclusive: 11.2 µM [inhibitor, partial curve, poor fit]
CC1CN(C(=O)N2CCC(C(=O)NC3CCCCCC3)CC2)c2cc(Cl)ccc2O1 (stereo not drawn) |  | inconclusive: 39.8 µM [inhibitor, partial curve, poor fit]
Cc1ccc(C(=O)CSc2nccn2-c2ccccc2)cc1 |  | inconclusive: 56.2 µM [inhibitor, single point]
CCN1CCC(N2CCN(c3ccc(Cl)cc3)CC2)CC1 | inactive: 19.2% | 
CC1=CC(C)(C)Nc2ccc(OC(=O)C(Cc3ccccc3)N3C(=O)c4ccccc4C3=O)cc21 (stereo not drawn) |  | inconclusive: 15.8 µM [inhibitor, partial curve, poor fit]
O=C(CCCOc1ccc(Cl)cc1Cl)N/N=C/c1ccc(Cl)cc1 |  | inconclusive: 39.8 µM [inhibitor, single point]
S=C(Nc1ccc2c(c1)OCO2)N1CCN(Cc2ccco2)CC1 | inactive: 25.6% | 
CC(C)(C)NS(=O)(=O)c1ccc2[nH]c3c(c2c1)CCCCC3 |  | inconclusive: 70.8 µM [inhibitor, partial curve]
COc1cc2ccccc2cc1C(=O)N(CCN(C)C)c1nc2ccc(Br)cc2s1 |  | inconclusive: 28.2 µM [inhibitor, partial curve]
COc1ccc(CCNc2oc(-c3ccc(OC)c(OC)c3)nc2C#N)cc1 |  | inconclusive: 28.2 µM [inhibitor, partial curve, poor fit]
Cc1ccccc1NC(=O)C1c2cccc[n+]2CC(=O)N1c1c(C)cccc1C (stereo not drawn) |  | inconclusive: 79.4 µM [inhibitor, partial curve, poor fit]
CC1=C/C(=N\Nc2ccccc2[N+](=O)[O-])CC(C)(C)C1 |  | active: 7.08 µM
O=C(NOC(=O)c1ccccc1)c1ccccc1 | inactive: 36.3% | 
CCCCNC(=S)NCc1ccc2[nH]c3c(c2c1)CCCC3 |  | inconclusive: 25.1 µM [inhibitor, full curve]
COc1cccc(-c2ocnc2C(=O)Nc2ccc(N3CCOCC3)cc2N2CCOCC2)c1 |  | inconclusive: 39.8 µM [inhibitor, partial curve]
